According to the supplement of paper PMC11417369:
± gives the standard deviation of the averaged measurements. Some of the results follow.

These sequences were tested on PfAP2-EXP AP2 domain (GST-tagged) (assay: gcPBM binding intensity (ln(normalized median fluorescence intensity)); higher = stronger DNA binding).
Procedure, shortened: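 Each value is the highest Masliner-normalised natural-log median intensity across replicate spots of either orientation of a probe. The probes were primer-extended double-stranded 36-bp intergenic genomic sequences on an Agilent 4 × 180k array, alongside negative controls, exposed for 1 h to GST-tagged P. falciparum DNA-binding domains expressed in E. coli. Bound protein was picked up with Alexa488 anti-GST antibody and scanned at 488 nm.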

| Sequence | gcPBM binding intensity (ln) |
| --- | --- |
| TTTTATCATCTTTTTACATTATGTATAAATATTTTC [CACACA_negctrl_site206] | 8.77 ± 0.42 |
| AAAAGAACAATGAAGTGTACTAATAATTATTTATGT [XGTACX_site6649] | 8.72 ± 0.35 |
| AGCAAAACATAAAATAGTACACATTTAACAAAAAAA [XGTACX_site2921] | 8.65 ± 0.4 |
| ATATAATATATTTTTGAACACACAATATATATATAT [CACACA_site9368] | 9.78 ± 0.18 |
| TTTTGTTGAAAAGTAAGATATTCCAACATGTTTTTA [CACACA_negctrl_site391] | 8.36 ± 0.57 |
| TAACTAATATATAAAACACACATCATAAAAATATAA [CACACA_site768] | 8.51 ± 0.61 |
| ATATCATTTTCCTGCACACATAAATTTATATAATAT [CACACA_site1048] | 9.15 ± 0.31 |
| ACACATAAATGAATAAATAAATAAATATAAATATAA [CACACA_negctrl_site1784] | 8.36 ± 0.29 |
| GGTGGGGAGGAGTAATGTACAAATTAACATATTATG [XGTACX_site6666] | 9.78 ± 0.28 |
| TTCTTACATGAGTGTACACACTTTTTTTCAGAAAAT [CACACA_site4215] | 8.93 ± 0.35 |
| TTATAAAATATTTATGCATGTGAAGAATATTATAAA [TGCATGCA_site1047] | 8.8 ± 0.3 |
| GAAAAAAGTATCAAGGTGCGTATATACATCAAAATA | 8.96 ± 0.39 |
| AATAGTCGGGTGCATACACACCTTAAATATAATATA [CACACA_site8271] | 8.59 ± 0.092 |
| TATATATTATAAAATTGTACATATATTAAATTTTTT [XGTACX_site5852] | 8.22 ± 0.18 |
| AAATGTTGAGCAGTACAAAAAAAAAAAAAAAAAAAA [GTGCAC_negctrl_site518] | 8.21 ± 0.47 |
| CAAAACAAAACGTATGCACACAATTAAAATATTAAA [CACACA_site5815] | 8.69 ± 0.55 |
| AAGATACCAATGAAATGTACATATATATAAATATAA [XGTACX_site2135] | 8.68 ± 0.41 |
| TTTTTTTTTTAATTGGGTACATATATAATTTAAGAA [XGTACX_site2732] | 8.23 ± 0.36 |
| CATTTATATAAAAGAACACACATATAAAATATTATT [CACACA_site3601] | 8.54 ± 0.52 |
| TAGTTTTTTATATATTGTACAAATAATATATGATAT [XGTACX_site4220] | 8.46 ± 0.33 |
| AGTGATTATTAATAATGTACATATCTATAAATATAT [XGTACX_site4734] | 8.36 ± 0.4 |
| TTTTTTTTTTTTTTCTTACAATTTATTGAACAAATG [XGTACX_negctrl_site515] | 8.43 ± 0.48 |

| Sequence | gcPBM binding intensity (ln) |
| --- | --- |
| GTATTGCATGAGGACACACACAAAAAAAATATAGAT [CACACA_site6500] | 8.84 ± 0.48 |
| TATATATTTCATCCTTGTACACATTTGTGTTTACAT [XGTACX_site1132] | 8.75 ± 0.3 |
| AATAAATAAATATATATATATATATATATATATATA [CACACA_negctrl_site365] | 10.1 ± 0.4 |
| TATCAAAATTGTAATTGTACTTGTAAGTGGATATAT [XGTACX_site5949] | 8.68 ± 0.3 |
| ACAATTTACACTTAAACACACAAAAAAAAGTTATAT [CACACA_site7056] | 8.61 ± 0.59 |
| ATATATTGCACTTTTTGTACATAATGAAAAATTTTT [XGTACX_site8223] | 9.41 ± 0.24 |
| ACCTTAATAAAAAAAAGTACAAACATGTTCAAATTG [XGTACX_site1556] | 9.32 ± 0.45 |
| TACATATTGATATATACACACAAAAAAATAAATTCT [CACACA_site6198] | 8.48 ± 0.38 |
| TTTTTTATAGTACATTACCAAAAAAAAAAAAAAAAA [GTGCAC_negctrl_site549] | 8.1 ± 0.4 |
| AATTCGTACCTCATTTGTACATATATATATATATAT [XGTACX_site5513] | 10.1 ± 0.28 |
| CATACACCCATACATACACACATACAGATATATATA [CACACA_site5123] | 8.62 ± 0.35 |
| TCACCATATAAACGTGCACACTACAAAAATATATAA [CACACA_site5413] | 9.32 ± 0.42 |
| ATATAAATATTATAATGTACATATAATATATTTATT [XGTACX_site5212] | 8.2 ± 0.29 |
| CTTTTATTTTATTTTAGTACGCAACATTCTCTATAT [XGTACX_site7279] | 8.88 ± 0.38 |
| TATTTATTTAAAAATTGTACGTAGGATTATACACTT [XGTACX_site286] | 8.34 ± 0.26 |
| TAAAATTTGTACATAGTGCAATTTTTTTTTTTTTTT | 8.52 ± 0.16 |
| ATCTCTGTATGTTAGACACACATATTTTAATATGTT [CACACA_site4244] | 8.57 ± 0.34 |
| TTTATTTTTATTTAAAGTACATATCCATTTATTCCT [XGTACX_site1914] | 8.57 ± 0.37 |
| AAACAATATTCTCAAGTGCAAAAAGAAAAAAGAAAT | 8.88 ± 0.4 |
| TACTTGTTATTAACATGTACAAAAAAAAAAAAAATT [XGTACX_site1338] | 8.43 ± 0.5 |
| AATGTACCCACACCCACACACAAACAAATATATATA [CACACA_site2751] | 9.27 ± 0.64 |
| AGATTAAAATATATACGTACATATTATTAATTAATA [XGTACX_site3487] | 8.58 ± 0.28 |
